According to the supplement of paper PMC10126150:
Sequences with one replicate were seen in a single cluster, so their values are uncertain.

These sequences were tested on ATP (assay: switch fluorescence ratio, 500 uM ATP over buffer (Cy3 cluster intensity, sum of 5 cycles each) (fold (ratio)); higher = stronger signal-on switching upon ATP binding; sequences stand for … in TCGTCGGCAGCGTCAGATGTGTATAAGAGACAGTTTTTTTTTTTTTTTTTTTTTTTTT…TC). Settings: aptamer strand: ATP DNA aptamer (quencher-CACCTGGGGGAGTATTGCGGAGGAAGG + anchor), 100 nM annealed; ATP concentration: 500 uM; one replicate.
Summary of the method: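 The fluorescence ratio divides summed target-cycle Cy3 intensity by summed buffer-cycle Cy3 intensity for each cluster and is averaged per switch-domain sequence. Cy3-labelled switching-strand clusters on a modified Illumina MiSeq flow-cell were annealed to 100 nM quencher-labelled ATP aptamer, then imaged in selection buffer and again after 15 min with 500 uM ATP at 22 °C. Five such cycles were run, with NaOH stripping and re-annealing between them, and clusters outside 100-1000 RFU were excluded.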
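Note: ATP exposure 15 min at 22 °C before imaging.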

Sequence | switch fluorescence ratio
CTACAAGGGC | 1.05
TTGGCCTGGT | 1.01
ACTGGATCTC | 1.01
GGGTGACCTT | 1.04
GAAATTCGCT | 1.02
ATCATTACAA | 0.969
CATTGTTGAA | 0.953
GCATACTTAA | 1.05
GTTGACATG | 0.905
CCCTTTTTTA | 1.35
ATTTCGGGTC | 0.993
CCATTTTATA | 0.97
CTCGGCTCAT | 1.15
TATTCTACGT | 1.05
TCTATATAGC | 1.03
CGATTGGTCT | 1
GAATGGATTA | 1.01
CAAGGGGCCG | 1.04
GCCATTTTCG | 0.997
GTCAGATCG | 1.07
AAAACAAGCG | 1.05
AAGAAATGAG | 1.05
AAACGTGAGC | 1.01
GTCCGAGAT | 1.04
TTCGCGTAGG | 0.998
ATTTGCACCT | 1.19

Sequence | switch fluorescence ratio
GGTATCATGG | 0.998
TTATAATTT | 1.01
GTCTTTAGCG | 0.988
GAGGCAAAGA | 1.17
AAGTATGGAA | 1.02
TGACCCAGGT | 2.56
TTACTTGACG | 1.12
TCAGAGACG | 1
TGCGTTAGGA | 1.01
GTATTGAAGC | 0.981
CAGATTAAGC | 0.946
GCCAGGGTAG | 1.03
AGACCTTACA | 1.32
GCTGATCGGT | 0.969
GATCCGCAGT | 7.59
ATGAATATCC | 1
TGGGGGCATC | 1.03
TACGGAAAT | 1.62
TACGCTCTT | 1.07
ATTTGTATAT | 1.04
CTGTTAGCTC | 1.12
GCTCATGCGT | 1.06
TAGCTGGGTA | 0.949
GCGGCTGGCA | 1.05
CGTACGGCAA | 5.12
GGCGACATTT | 1.04

Sequence | switch fluorescence ratio
CGAAAGTGGG | 0.975
TGGGGTGTAA | 1
CCAGGGGGA | 3.4
ATCTGCCTGA | 0.98
CTTGCCTAGT | 0.942
GCCTTATGGT | 0.975
TGGCGCGAAT | 1.01
ACTTATGGGC | 1.02
CTTTGGCGTG | 1.03
AAGACCGTAG | 0.957
CGGGTCTATC | 0.987
TAGAGTTACA | 1
AACGAGCCAA | 1.11
CTGTATAGG | 0.992
TCCGTACGCT | 4.21
AGCCCGCGAA | 1.17
TAGGGTGCCA | 0.946
TCTTTTTAGG | 1.03
ATGTGCTTGA | 0.965
ATCTAACACA | 0.989
CGCTTGGGGA | 1.06
GTTCCACGGG | 1.01
AACGGACTGC | 1.27
CGATCAGCTG | 1.03
GGGCAACAGT | 1
CTCTATAATA | 1.13

Sequence | switch fluorescence ratio
TTGCCCCGAT | 1.07
GGTTGGTAGC | 1.04
AGCGAGGTTT | 0.928
GGTCAGCACT | 1.03
ACGATAAGTG | 1
ACAAGTGCAT | 1.01
TCGATGCGAG | 1.03
CAGTCGCATC | 1.75
GCAGGGCTGC | 1.04
ATTGTAGTAA | 1.03
CCGAGTAAGA | 3.49
TTTCGGATTA | 0.981
CGTGACGAAA | 1.42
TTCTTCTT | 0.979
TTATCGAAAA | 0.988
CGTATTGACG | 0.973
TTGTCTTAGG | 1.04
ATGGTAGGTT | 0.941
AAGGAATGCG | 1.02
TGAGCACCTT | 1.04
AAAATACCGC | 0.993
ACGAAGTTCT | 0.973
TAATAGTGAG | 0.981
CTCCTTACAT | 1.07
GACCTCTGTA | 1.03
TATATCCAGG | 1.26

Sequence | switch fluorescence ratio
ATAACGCTAA | 1.23
ATGTTGAGTA | 0.982
GATGTCCGTG | 0.989
GCGTTTAGGC | 1.05
TCGGACCGCG | 1.01
TAACGTTCCG | 1.08
CGTTGACATT | 0.996
ATTCGCGGGG | 1.04
TGGAAAATAG | 0.965
GGCGGTAGTA | 1.05
CTGACACGTA | 1.23
ATCTGAAGGC | 1.02
CAGGCTAGA | 1.04
TACGCATGTG | 1.03
GAAAAGGCAA | 2.06
TAGCGGTGCT | 1.08
TTTATCATTA | 0.956
TACATCTCCT | 0.97
CACGAGGGAT | 1.94
AACTAGCCCA | 0.994
CGTTTGAGGT | 0.985
CCACACCCAT | 1.2
AGTCTAAGAA | 0.975
GGGGCCTTGT | 0.993
CACCGGTCGT | 0.962
ATTACGATTA | 1.07

Sequence | switch fluorescence ratio
TTAAAGGAG | 0.972
CATGATGTAT | 0.969
CTACTTACGG | 1.52
ATTCGACGGC | 1
TTGTGGTCAG | 0.961
AGTGGCCGT | 0.959
GGGCGTTTAT | 0.992
TGGAGGACTC | 0.995
TCACGTCTCA | 1.01
GCGGCGATTG | 1.04
GCGTCCCTGC | 1.04
GACTCCGTCG | 1.09
TTCTTTGATG | 0.976
TTCGGGAAAG | 0.965
CAGCCGCTTC | 1.39
GAGCAGGAAA | 0.985
GGCAAAATGC | 1.02
GGGATTGTCA | 1.01
GAATATTTCC | 1.06
GCGTGCCCTA | 1.01
AAAGATAGCG | 0.987
TGTATCTTGG | 0.988
CTTATATTCA | 0.929
